Data taken from PubChem BioAssay AID686979 (National Center for Advancing Translational Sciences (NCATS), 2013).
The whole screen tested about 420,000 compounds, of which about 50,000 (12%) were called active. The shares of active, inactive and inconclusive entries below differ from those in the screen. Calls come from the whole dose curve; as a rule, active = well fitted inhibition curve with a large enough effect; inconclusive = small, poorly fitted or top-dose-only effect; inactive = flat fitted curve, though single readings scatter. No potency is given beside an inconclusive call; the fits are too rough.

Assay: qHTS for Inhibitors of human tyrosyl-DNA phosphodiesterase 1 (TDP1): qHTS in cells in presence of CPT; note: nearly all actives have a fitted effect of over 55% in size
Conditions: chicken DT40 Tdp1-/-;hTDP1 cells + 20 nM CPT, ATP luminescence, 48 h; activity change, negative = growth inhibition: at 46.2 µM (top of the series) unless noted
Outline: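 Chicken DT40 Tdp1-/- cells stably complemented with human TDP1 were seeded at 400 cells/well in medium containing 20 nM camptothecin, exposed to pin-transferred compounds, and grown at 37 °C for at least 48 hr. Viability was read as ATP luminescence.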
% is set by controls: 0 for no effect and ±100 for the full control effect; potency is the fitted concentration of half-maximal effect; tags give direction and shape of the fitted curve.

Row | Compound | activity change, negative = growth inhibition | Potency
1 | COc1ccccc1Oc1cn[nH]c1-c1ccc(OCC(=O)NN)cc1O | inactive: -12.1% | 
2 | Cc1ccc(S/C=C\C(=O)c2ccccc2)cc1 |  | active: 20.6 µM
3 | CNC(=O)C1Cc2c(-c3ccccc3Oc3ccccc3)ccnc2O1 (centres undefined) |  | inconclusive [inhibitor, single point]
4 | Cc1cc(C)cc(SCc2noc(C(=O)NCC3CC3)c2C(=O)NCC2CC2)c1 |  | inconclusive [inhibitor, single point]
5 | CCOc1ccc(N(CC)S(=O)(=O)N2CCCC(C(=O)Nc3ccc(OC)c(Cl)c3)C2)cc1 (centres undefined) |  | active: 16.4 µM
6 | COc1ccc(OC)c(NC(=O)Nc2cnccn2)c1 | inactive: -0.691% | 
7 | CCOC(=O)c1c(N2CCN(c3ccccc3)CC2)cc(C)nc1C |  | inconclusive [inhibitor, single point]
8 | Cc1cc(-c2ccccc2)c2c(=O)n(-c3ccccc3)[nH]c2n1 |  | inconclusive [inhibitor, single point]
9 | CCCn1nc(C(=O)Nc2nc3ccccc3[nH]2)c2ccccc2c1=O |  | inconclusive [inhibitor, single point]
10 | CN(Cc1cccc2ccccc12)C(=O)c1cc(COc2c(F)cccc2F)on1 |  | inconclusive [inhibitor, single point]
11 | COc1cccc(NC(=O)CSc2c3c(nc4ccccc24)CCCC3)c1 |  | active: 23.1 µM
12 | CSc1cccc(NS(=O)(=O)c2ccc3c(c2)oc(=O)n3C)c1 |  | active: 23.1 µM
13 | COc1cccc(CN(CC(=O)NC2CCCCC2)C(=O)c2csnn2)c1 | inactive: 0.838% | 
14 | O=C(CCc1nnc(CCC2CCCCC2)o1)NCCc1ccccn1 | inactive: -1.09% | 
15 | CS(=O)(=O)c1ccc(C(=O)N2CCN(S(=O)(=O)c3ccc(C4CCCCC4)cc3)CC2)cc1 |  | inconclusive [inhibitor, full curve]
16 | COc1ccc(NC(=O)c2cc(-c3ccc(C)o3)nc3ccccc23)c(OC)c1 |  | inconclusive [inhibitor, single point]
17 | Cc1ccc(-c2nnc3c4ccccc4c(C)nn23)cc1S(=O)(=O)N1CCN(CCO)CC1 |  | inconclusive [inhibitor, partial curve, poor fit]
18 | Fc1ccc(C2CC(c3ccccc3)Nc3ncnn32)cc1 (centres undefined) |  | inconclusive [inhibitor, partial curve, poor fit]
19 | Cc1ccc2c(c1)CCCN2C(=O)c1cc(C)c(C)s1 |  | inconclusive [inhibitor, single point]
20 | CCCCN(C(=O)c1cccc(S(=O)(=O)N2CCN(Cc3ccccc3)CC2)c1)c1ccccc1 |  | inconclusive [inhibitor, single point]
21 | O=C(Nc1ccccc1C(=O)O)c1cc(S(=O)(=O)NCc2ccccc2)ccc1Cl |  | inconclusive [inhibitor, partial curve, poor fit]
22 | Cc1cccc(NC(=S)N2CCN(S(=O)(=O)c3ccc(F)cc3)CC2)c1 | inactive: -1.87% | 

Row | Compound | activity change, negative = growth inhibition | Potency
23 | O=S(=O)(/N=C(/Nc1ccc(F)cc1F)c1ccccc1)c1ccccc1 | inactive: -4.58% | 
24 | N#Cc1ccc(-c2nc3ccc(Br)cn3c2Cc2ccccc2C(F)(F)F)cc1 |  | inconclusive [inhibitor, single point]
25 | COc1ccc(-c2cc3nc(C)c(CCC(=O)NC(C)c4ccccc4)c(C)n3n2)c(OC)c1 (centres undefined) | inactive: -23.3% | 
26 | Cc1c(Cl)ccc2sc(N3CCN(C(=O)C4CC4)CC3)nc12 |  | active: 11.6 µM
27 | COc1ccc(-c2onc(C)c2C)cc1S(=O)(=O)N1CCN(c2cc(C)ccc2C)CC1 |  | inconclusive [inhibitor, single point]
28 | COC(=O)CC(=O)CSc1nc2cc(C(=O)NCC(C)C)ccc2c(=O)n1CCc1ccccc1 |  | inconclusive [inhibitor, single point]
29 | Cc1cc(Br)cn2c(Cc3ccsc3)c(-c3ccco3)nc12 |  | inconclusive [inhibitor, single point]
30 | CC(C)CN(C(=O)COC(=O)c1cc(=O)[nH]c2ccccc12)c1c(N)n(Cc2ccccc2)c(=O)[nH]c1=O | inactive: 1.02% | 
31 | Cc1nc(N2CCN(c3ccccn3)CC2)c2c(C)c(C(=O)Nc3ccc(F)cc3F)sc2n1 |  | active: 16.4 µM
32 | CCN1CCN(c2ccc(NC(=O)c3ccc(Cl)c(S(=O)(=O)N4CCCC4)c3)cc2)CC1 |  | inconclusive [inhibitor, single point]
33 | O=C(Nc1ccccc1C(F)(F)F)N1CC=C(c2c[nH]c3ccccc23)CC1 |  | active: 20.6 µM
34 | CCC1OC2(C)OC(=N)C1(C#N)C(C#N)(C#N)C2c1ccccc1 (centres undefined) |  | inconclusive [inhibitor, single point]
35 | COc1ccc(CC(N)c2csc(Nc3ccc(C(C)=O)cc3)n2)cc1 (centres undefined) |  | active: 25.9 µM
36 | CCCSc1nc2c(c(=O)n1-c1ccc(OCC)cc1)SCC2 |  | inconclusive [inhibitor, single point]
37 | COc1ccc(CN2CSC(=S)N(Cc3ccc(OC)cc3)C2)cc1 |  | active: 4.61 µM
38 | CCn1c(SCc2nc(-c3ccccc3)no2)nnc1-c1cccs1 |  | inconclusive [inhibitor, single point]
39 | O=C(NCc1cccnc1)/C(=C/c1ccc(Cl)cc1)NC(=O)c1ccccc1 |  | active: 23.1 µM
40 | CCOC(=O)c1cccc(NC(=O)CN(c2ccc(C)cc2)S(=O)(=O)c2c(C)noc2C)c1 |  | inconclusive [inhibitor, single point]
41 | COC(=O)CN(c1cc(Cl)ccc1OC)S(=O)(=O)c1ccc(OC)c(OC)c1 |  | inconclusive [inhibitor, single point]
42 | CCOC(=O)C1=C(C)N(C)C(C)=C(C(=O)OCC)C1c1ccc(C(=O)OC)cc1 |  | inconclusive [inhibitor, partial curve]
43 | CN(C)S(=O)(=O)c1cc(NC(=O)CN2CCN(c3ccccc3F)CC2)ccc1Cl |  | inconclusive [inhibitor, single point]
44 | COc1cccc(NC(=S)N(Cc2ccccn2)Cc2ccccc2Cl)c1 |  | inconclusive [inhibitor, single point]
